# The list shows a part of the results.
# Tested on: HSkMC (human skeletal muscle cells)
# Test: cytotoxicity call (relative viability < 0.9)
# Settings: 10 µM
row,SMILES,cytotoxicity call
1,COc1ccccc1CNC(=O)C[C@H]1C[C@H]2c3cc(NC(=O)NC4CCCC4)ccc3O[C@H]2[C@H](CO)O1,inactive
2,C[C@@H]1CCCCO[C@@H](CN(C)C(=O)NC2CCCCC2)[C@@H](C)CN([C@H](C)CO)C(=O)c2cc(NS(=O)(=O)c3ccc(Cl)cc3)ccc2O1,inactive
3,C[C@H](CO)N1C[C@H](C)[C@H](CN(C)S(=O)(=O)c2ccc(Cl)cc2)Oc2c(NS(=O)(=O)c3cn(C)cn3)cccc2C1=O,inactive
4,CN1C(=O)c2cc(NC(=O)c3cccs3)ccc2OC[C@@H]2O[C@@H](CC(=O)NCC(F)(F)F)CC[C@H]21,inactive
5,COc1cccc(-c2ccc3c(c2)O[C@H](CN(C)C(=O)C2CCOCC2)[C@H](C)CN([C@H](C)CO)S3(=O)=O)c1,inactive
6,COCC#Cc1ccc2c(c1)O[C@H](CN(C)S(=O)(=O)c1ccc(F)cc1)[C@@H](C)CN([C@@H](C)CO)S2(=O)=O,inactive
7,O=C(CN1CCOCC1)NCC[C@H]1CC[C@@H](NS(=O)(=O)c2ccc(Cl)cc2)[C@@H](CO)O1,inactive
8,CC(=O)Oc1cc2c(c(C)c1OC(C)=O)CC=C1[C@@]2(C)CC[C@@]2(C)[C@H]3C[C@](C)(C(=O)O)CC[C@]3(C)CC[C@]12C,active
9,CCCNC(=O)N1CC[C@]2(CC1)CN([C@@H](CO)c1[nH]c3cc(ccc3c12)OC)C(=O)CN1CCOCC1,inactive
10,C[C@@H]1CN([C@H](C)CO)S(=O)(=O)c2ccc(C#Cc3ccccc3)cc2O[C@@H]1CN(C)S(=O)(=O)c1cn(C)cn1,inactive
11,Cl.NCCS,inactive
12,O=C(C[C@@H]1C[C@@H]2c3cc(NC(=O)c4ccc5c(c4)OCO5)ccc3O[C@@H]2[C@H](CO)O1)NCc1cccnc1,inactive

# Tested on: HepG2
# Test: cytotoxicity call (relative viability < 0.9)
# Settings: 10 µM
row,SMILES,cytotoxicity call
1,C[C@H]1CN([C@@H](C)CO)C(=O)c2cc(NC(=O)Nc3cccc4ccccc34)ccc2O[C@H]1CN(C)Cc1ccncc1,inactive
2,COc1ccc(CN(C)C[C@H]2OCCCC[C@H](C)Oc3ccc(NC(=O)Nc4ccc(C(F)(F)F)cc4)cc3C(=O)N([C@@H](C)CO)C[C@@H]2C)cc1,active
3,C[C@H]1CN([C@@H](C)CO)C(=O)c2cccc(NC(=O)Nc3ccc4c(c3)OCO4)c2O[C@H]1CN(C)Cc1ccc(C(=O)Nc2ccccc2N)cc1,inactive
4,C[C@H]1CN([C@@H](C)CO)C(=O)CCCn2cc(nn2)CO[C@H]1CN(C)S(=O)(=O)c1cn(C)cn1,inactive
5,Cc1ccc(C2(CN3CCN4C(=O)CN(C)C(=O)[C@H]4C3)CCNCC2)nc1,inactive
6,CCN(CC)CCNC(=O)c1cc(S(C)(=O)=O)ccc1OC.Cl,inactive
7,O=c1[nH]cnc2c1ncn2C1CCC(CO)O1 (stereo not given),inactive
8,O=c1[nH][nH]c(=O)c(Cl)c1Cl,inactive
9,COc1ccc(S(=O)(=O)N(C)C[C@H]2OCCCC[C@H](C)Oc3ccc(NC(=O)Nc4c(C)noc4C)cc3C(=O)N([C@@H](C)CO)C[C@@H]2C)cc1,active
10,C[C@@H]1CN([C@H](C)CO)C(=O)c2cccc(NC(=O)c3ccc(-c4nccs4)cc3)c2O[C@H]1CN(C)S(=O)(=O)c1ccc(Cl)cc1,inactive
11,C[C@H](CO)N1C[C@H](C)[C@@H](CN(C)C(=O)Nc2ccccc2)Oc2ccc(NC(=O)Cn3cnnn3)cc2C1=O,inactive
12,C[C@@H]1CN([C@H](C)CO)C(=O)Cc2cc(NS(=O)(=O)c3ccc(F)cc3)ccc2O[C@H]1CN(C)Cc1ccc(Cl)c(Cl)c1,active
13,C[C@H]1CN([C@@H](C)CO)C(=O)c2c(c3ccccc3n2C)-c2ccccc2CO[C@H]1CN(C)C(=O)Nc1ccc2c(c1)OCO2,inactive
14,COc1ccc(S(=O)(=O)N(C)C[C@@H]2Oc3c(NC(=O)Nc4cccc5ccccc45)cccc3C(=O)N([C@@H](C)CO)C[C@@H]2C)cc1,inactive
15,COc1ccc(S(=O)(=O)Nc2ccc3c(c2)C(=O)N([C@H](C)CO)C[C@H](C)[C@@H](CN(C)C(=O)NC(C)C)O3)cc1,inactive
16,Cc1noc(C)c1S(=O)(=O)N(C)C[C@H]1Oc2c(NS(=O)(=O)c3ccc(F)cc3)cccc2C(=O)N([C@@H](C)CO)C[C@H]1C,inactive
17,CC1C(=O)OC2CC34C5CC(C(C)(C)C)C36C(OC(=O)C6O)OC4(C(=O)O5)C21O (stereo not given),inactive
18,C[C@H]1O[C@@H](O[C@H]2[C@@H](O)C[C@H](O[C@H]3[C@@H](O)C[C@H](O[C@H]4CC[C@@]5(C)[C@H](CC[C@@H]6[C@@H]5C[C@@H](O)[C@@]5(C)[C@@H](C7=CC(=O)OC7)CC[C@]65O)C4)O[C@@H]3C)O[C@@H]2C)C[C@H](O)[C@@H]1O,active

# Source: the antibiotic and cytotoxicity screens of Wong et al. (2023)
